The list shows a part of the results.
T1: UNK ZnF1-3 (human, UniProt Q9C0B0 31-174)
T1 sequence: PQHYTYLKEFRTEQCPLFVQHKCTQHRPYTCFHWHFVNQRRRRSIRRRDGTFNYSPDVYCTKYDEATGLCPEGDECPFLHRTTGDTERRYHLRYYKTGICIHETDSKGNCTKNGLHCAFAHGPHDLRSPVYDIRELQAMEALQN

B1: chr5:92386950:92386951:-_ENSMUSG00000029397_ENSMUST00000031345|mus_hu|FALSE|FALSE (ssRNA)
RNA: GGGAGUUCUACAGUCCGACGAUCCUGUUGGGCAUGUUGAAUUUUUUCACAGUUUAUGCACUGCACUUCCUUCACUUUAAAGCGAUCUAGUUGAUGAUCUUCAUUGUUAUCAUGACACAAGCGGCAAGUAUAAAGCUUGUCACACAACAGAGGAUUGAGCAUCA
B2: chr6:22256794:22256795:-_ENSMUSG00000029672_ENSMUST00000165576|mus_mus|FALSE|FALSE (ssRNA)
RNA: GGGAGUUCUACAGUCCGACGAUCCCUGUUCUCAAGCAACUUUACUUCAUACACAUUCAAAUAUAUCCAGGCCAUAUGAUACUACUAUGUUGAAUGGCAAAAACUUAAUUUUUAUAUGUUAAGAUGUAUCCAAAAAAAAAAAAACAACAGAGGAUUGAGCAUCA
B3: 56511178_56513202_519_CDS_ENSMUSG00000021024_ENSMUST00000021412|mouse|control|control (ssRNA)
RNA: GGGAGUUCUACAGUCCGACGAUCCUCUUCAUCGAUACCGAUUAAAAUCAUACAACAACCGAGUGGCCUCAUUUCAGCGUUCUGUGUGUAGACUUGAGAAAUAUCAGCAAUUCUUUUGCACAGCAUGUCCACAGGAAUUUCAUACAACAGAGGAUUGAGCAUCA
B4: chr7:157178285:157178286:+_ENSG00000105993_ENST00000429029|hu_mus|FALSE|FALSE (ssRNA)
RNA: GGGAGUUCUACAGUCCGACGAUCGAGUUACUUGUUAUCCAAGCGUAGCAGGUGCUCCUUACCAUUUAUUGUCAAGGACUUUAACUGCCCAUCUUCUUCAACUUCUACUCUUUCUUGACCGUUCUCCACAAUCCUCUUUGUCGUCAACAGAGGAUUGAGCAUCA
B5: chr17:48772226:48772227:-_ENSG00000154945_ENST00000285243|hu_mus|motif|central (ssRNA)
RNA: GGGAGUUCUACAGUCCGACGAUCUAAAAUUGAACAAUUUGUUUAUAAAAGCAACAGAUUCCAGAGUUAUGUAAAAACCCGGAUAAUUUUCAAAAUAACCUUUAUCUUUGAUACAAAAAUAAAGAUGCUAACUCCUUUAGUUCACAACAGAGGAUUGAGCAUCA
B6: chr15:40510687:40510688:+_ENSG00000156970_ENST00000287598|hu_mus|FALSE|FALSE (ssRNA)
RNA: GGGAGUUCUACAGUCCGACGAUCCCAGAGGAGUCCAUCCCAGAAGACAUGGAGGUGCUCCUUGAACAGGAGUAAGUGCGCUAGGUCUGCUAUACCCAACAGAUCUACAUGGUAGGGAGAAGAACAGUUAGCCAGGAUCUUUUGCAACAGAGGAUUGAGCAUCA
B7: chr7:149068622:149068623:-_ENSMUSG00000025139_ENSMUST00000001950|mus_hu|mus_mus_mus_hu_False|68_78 (ssRNA)
RNA: GGGAGUUCUACAGUCCGACGAUCGUGAGGCCUCUGAGUGUGGCUUGUGGUCUGUCCUGUCUGCAGUCUGCUGGUAACACGGAACAUACCAUCUAGAACGUUCCAGUCCCGCCUGACACCUUCAUUCCCAAUGGAGAAGAAAUCCAACAGAGGAUUGAGCAUCA
B8: 91658163_91658283_3640_CDS_ENSMUSG00000022961_ENSMUST00000114036|mouse|control|control (ssRNA)
RNA: GGGAGUUCUACAGUCCGACGAUCUGAAUAAUUAGCAGGUACUGCCAUAGGCUCUGAAAUCUCACUUUGACUCACAGGAGGCUCAGGCUGUGAUAGAGAUUCUCCAGUAGAUAAUGUCACCUCUGUAGACCAAGUAUUGUCAGCCAACAGAGGAUUGAGCAUCA
B9: 80932254_80933479_467_CDS_ENSMUSG00000034818_ENSMUST00000118763|mouse|control|control (ssRNA)
RNA: GGGAGUUCUACAGUCCGACGAUCCACGAAGGCACAGCCUUUGCUGCUGCCAUCUGGUCCUCGAAGCACUGUGCACUCGUCUAUGACGCCAAAGGGCUGGAAGAGCCUGAGCACGUCUUCCUCUGACUGCUGCUUGUUGAGCAUCAACAGAGGAUUGAGCAUCA
B10: chr16:94664741:94664742:+_ENSMUSG00000040785_ENSMUST00000117648|mus_hu|mus_mus_mus_hu_False|1_38 (ssRNA)
RNA: GGGAGUUCUACAGUCCGACGAUCUGGUACUGAUCUUGGUAGCUGAUAUUCAGGAGAAAGGCUGGCCAAGGGUGUAUAUAUGCUGGUGUACUGGGGCAGGCUAGGUAACACGUUUAUGUAUGCUGGCGGUGUCUGGGUGCCAAACAACAGAGGAUUGAGCAUCA
B11: chr17:60770872:60770873:+_ENSG00000011028_ENST00000303375|hu_hu|hu_hu_hu_mus_True|68_108 (ssRNA)
RNA: GGGAGUUCUACAGUCCGACGAUCUCUCUUUUCUUUUAAAAAAAAAGACAAACAAUAAUAGCACAUUAUUUAAAAAAAGAACUACAAUAGAGGGUCCGCUUUGAGUUUUUGUUCACAUCGUCCUGCACUGGGACACGGGGACUGCAACAGAGGAUUGAGCAUCA
B12: chr2:50987981:50987982:-_ENSMUSG00000017144_ENSMUST00000017288|mus_mus|motif|central (ssRNA)
RNA: GGGAGUUCUACAGUCCGACGAUCGGUGGCGACGUGAAAAAUGUCUCUGACGCUGUUUUCUGACUGUAAAGCUGAGCAUUCGGUGUAAGUGGCUGCUCCGAUCUGCUUGGCCAUAUUUGCCCCCUGGUCAUAUGACACAGGAGUCAACAGAGGAUUGAGCAUCA
B13: 41625212_41641310_204_CDS_ENSG00000137804_ENST00000414849|human|control|control (ssRNA)
RNA: GGGAGUUCUACAGUCCGACGAUCAGUUUGACUUUCAUCCUGAUUCUCAUUUCCUUUUCUUGCCUCAUGUUUAAUGUAGCCUUUCAAGGCUUUUAACAACUUGGUUGCCCUCAGGUUGGCCCGGAGACCCAGACUCUUGGCUAACAACAGAGGAUUGAGCAUCA
B14: chr1:135029974:135029975:+_ENSMUSG00000046062_ENSMUST00000052529|mus_mus|FALSE|FALSE (ssRNA)
RNA: GGGAGUUCUACAGUCCGACGAUCCUGACGGCCUUUCCAAUUCUUCCCUGACGGUUGAAAAGGAGCCUUAAAAUUUAAAAGGUUGUAGGGGUCCUCAGAAUGACAGAAAGAGUUCCACAAUUUAAGAUUCUCUGCUUCAUCUGCCAACAGAGGAUUGAGCAUCA

The binders below were run against T1, UNK ZnF1-3 (assay: nsRBNS (natural sequence RNA bind-n-seq); RBNS binding buffer (assumed for nsRBNS): 25 mM Tris pH 7.5, 150 mM KCl, 3 mM MgCl2, 0.01% Triton X-100, 500 ug/ml BSA, 20 U/ml SUPERase-In, 4 C; UNK is unkempt and MSI1 is Musashi-1; names of the RNAs are library labels; protein concentration not given here; high values mean tight binding).

Row | Binder | binding signal [enrichment R]
1 | B1 | 0.438
2 | B2 | 1.35
3 | B3 | 1.13
4 | B4 | 0.295
5 | B5 | 1.5
6 | B6 | 0.594
7 | B7 | 0.779
8 | B8 | 1.01
9 | B9 | 0.967
10 | B10 | 1.37
11 | B11 | 1.27
12 | B12 | 0.755
13 | B13 | 0.546
14 | B14 | 1.21

— PMC12136788
